Measured values taken from PubChem BioAssay (NCI).
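Growth conditions: 96-well plates. Treatment: test compound, 48 hours, 5 concentrations. Analysis: linear interpolation between bracketing concentrations; unreached endpoints set to highest concentration. Here, GI50 denotes the concentration required for 50% inhibition of growth. TGI: concentration producing complete growth inhibition.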

System: NCI-H322M lung
Test: NCI tumour cell line growth inhibition, 48 h

How did the TGI turn out when C#CCN(Cc1ccc2nc(-c3ccccc3)c(Cl)nc2c1)c1ccc(F)cc1 was run?
Its TGI is over 100 µM.

Which results are given for O=C1NN2CC(c3ccccc3)=NN=C2c2ccccc21?
GI50: 20.6 µM; TGI: 56.7 µM

How did the TGI turn out when O=C(CNc1ccccc1[N+](=O)[O-])Nn1cnc2ccc(S(=O)(=O)Nc3ccccc3[N+](=O)[O-])cc2c1=O was run?
The TGI was over 100 µM.

With C/C(=N/NC(=O)c1ccccc1S(N)(=O)=O)C(CN1CCCCC1)C(C1=C(O)C2C=CC=CC2OC1=O)c1ccccc1 (centres undefined) as the molecule, how does the TGI read?
Its TGI is over 100 µM.

With C[C@@H]1C(=O)CC2C(C)(C)CCC[C@]2(C)[C@@]12CC[C@]1(C=COC1)O2 (some centres undefined) as the molecule, how does the TGI read?
The TGI was over 100 µM.

With N=C(N)SCc1ccc2c(c1)S(=O)(=O)c1ccccc1O2 as the molecule, how does the TGI read?
The TGI was 42.6 µM.

C=C1c2nc3ccccc3n2C=C(c2ccc(OC)cc2)N1c1ccc(OCCN2CCCCC2)cc1 was tested. Which TGI did it give?
Its TGI is over 100 µM.

With COc1ccc2c(O)c(Oc3ccc(Cl)cc3)c(=O)oc2c1 as the molecule, how does the TGI read?
Its TGI is over 100 µM.

With O=C(O)c1ccccc1CN1CCCC(C(=O)O)C1 (centres undefined) as the molecule, how does the TGI read?
The TGI was over 100 µM.

Cc1cc(N(CCC#N)CCC#N)ccc1/C=C(\NC(=O)/C=C/c1ccccc1)C(=O)N=[N+]=[N-] was tested. Which TGI did it give?
The TGI was over 100 µM.

How did the GI50 turn out when CCOc1ccc(N(C)c2ccc(/C=C/C3=[N+](C)c4ccccc4C3(C)C)cc2)cc1 was run?
The GI50 was 0.827 µM.

And the TGI?
The TGI was 6.71 µM.

With CC(C)(C)N(Cc1ccccc1)C(=O)/C=C\S(=O)c1ccccc1 (centres undefined) as the molecule, how does the TGI read?
The TGI was 26.8 µM.
